The text below walks through data of PubChem BioAssay AID1159614 (National Center for Advancing Translational Sciences (NCATS), 2016).

The campaign covered roughly 45,000 compounds. About 65 (0.1%) were called active. Calls follow the shape of the dose curve; as a rule, active = well fitted activation curve with a large enough effect; inconclusive = small, poorly fitted or top-dose-only effect; inactive = no such curve, though single readings can be large or run the other way. Some of the results follow.

Sequence of UniProt P54803 (P54803 whole entry, looked up): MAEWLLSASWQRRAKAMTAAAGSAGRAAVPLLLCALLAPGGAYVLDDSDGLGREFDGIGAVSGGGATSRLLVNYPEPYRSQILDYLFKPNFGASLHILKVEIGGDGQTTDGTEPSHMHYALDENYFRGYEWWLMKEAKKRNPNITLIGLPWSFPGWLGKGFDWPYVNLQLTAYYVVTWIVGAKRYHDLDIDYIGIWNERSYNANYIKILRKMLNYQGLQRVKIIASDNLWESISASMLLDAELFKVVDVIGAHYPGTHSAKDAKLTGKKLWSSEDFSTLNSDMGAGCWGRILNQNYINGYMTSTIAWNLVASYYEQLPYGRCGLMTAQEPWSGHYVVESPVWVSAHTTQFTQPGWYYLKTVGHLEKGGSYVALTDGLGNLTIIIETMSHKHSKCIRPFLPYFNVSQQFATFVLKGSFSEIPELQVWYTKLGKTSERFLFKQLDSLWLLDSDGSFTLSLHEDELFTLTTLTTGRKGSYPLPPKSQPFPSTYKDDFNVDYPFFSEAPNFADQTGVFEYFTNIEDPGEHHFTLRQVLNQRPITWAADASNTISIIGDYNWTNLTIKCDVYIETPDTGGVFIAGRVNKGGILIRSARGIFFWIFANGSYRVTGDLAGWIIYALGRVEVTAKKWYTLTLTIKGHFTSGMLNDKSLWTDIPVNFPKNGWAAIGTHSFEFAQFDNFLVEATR

The assay has as its target Galactocerebrosidase (Homo sapiens) (UniProt P54803). The assay is described as follows: A Novel Cell-Based Assay to Identify Small Molecules for B -Galactocerebrosidase. Also: 0% is about no effect; nearly all actives have a fitted effect of over 65% in size. Particulars: 145M-Twi-hGALC-G270D cells (Twitcher mouse brain line with human GALC G270D), HMU-beta-Gal fluorescence, 48 h; series mostly up to 57.5 µM; activation: at the top concentration. The essentials:
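Live 145M-Twi cells (Twitcher mouse brain-derived, GALC-null) stably expressing human GALC-G270D, with a wild-type GALC line, were compound-treated. Residual GALC activity was then read as fluorescence from 0.1 mM final HMU-β-gal at pH 5.2; higher signal means activation.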
With `Cc1cccc(Cn2c(SCc3ccc(C(=O)NC4CCCC4)cc3)nc3cccnc32)c1`, the “activation” value is inactive: -8.7%.

Regarding `COc1ccc(NC(=O)C2CCN(S(=O)(=O)c3c(C)noc3/C=C/c3cccs3)CC2)cc1`, the “activation” value is inactive: -19.6%. In the case of `Cc1nn(-c2ccc(Cl)cc2)c2nc(-c3cccnc3)cc(C(F)(F)F)c12` it was inactive: -14.3%. For `COc1ccc(CCNC(=O)c2cn(C)c3ccc(S(=O)(=O)N4CCOCC4)cc3c2=O)cc1OC`, the “activation” value was inactive: -16.6%. For `CC(C)N(Cc1ccccc1)C(=O)Cn1ncc2c3ccccc3n(Cc3ccccc3)c2c1=O`, the “activation” value is inactive: -12.5%. In the case of `CCOC(=O)c1ccc(NC(=O)CCCn2c(=O)c3cccn3c3cccnc32)cc1` it was inactive: -22%; in that of `CCn1cc(S(=O)(=O)c2cccc(Cl)c2)c(=O)c2cc(F)c(N3CCN(C)CC3)cc21`, inactive: -7.82%; in that of `CN(Cc1ccccc1)C(=O)CCS(=O)(=O)c1ccc2c(c1)oc(=O)n2C`, inactive: -16.5%.

On to `COC(=O)c1ccccc1NC(=O)c1ccc(-c2nc(CSc3ccc(C)cc3)c(C)o2)cc1`, for which the “activation” value is inactive: 1.22%. In the case of `COc1ccc(OC)c(CNC(=O)c2ccc(NC(=O)c3nsc4ccccc34)cc2)c1` it was inactive: -6.32%; in that of `Cc1ccccc1OCCCCn1c(CCNC(=O)C(C)(C)C)nc2ccccc21`, inactive: -21%; in that of `COc1ccc(OC)c(S(=O)(=O)NCC(c2ccco2)S(=O)(=O)c2ccccc2)c1` (stereo unspecified), inactive: -18.7%.

On to `COc1cccc(-c2noc(CCCC(=O)NCc3ccco3)n2)c1`, for which the “activation” value was inactive: -24.7%. In the case of `O=C(CSc1ccccc1)NCc1ccc2c(c1)CCN2C(=O)c1ccccc1` it was inactive: -19.4%; in that of `COc1ccc(S(=O)(=O)NC(C)C)cc1-n1cnnn1`, inactive: -22.5%. With `Cc1ccccc1Nc1nnc(-c2ccc(C)c(S(=O)(=O)N3CCN(C)CC3)c2)c2ccccc12`, the “activation” value is inactive: -16.2%. For the molecule `O=C(Cc1csc2ccccc12)NCc1ccc(F)cc1`, the “activation” value is inactive: -13.8%. In the case of `O=C(Nc1ccc(OC(F)(F)F)cc1)C1CCCN(S(=O)(=O)c2ccc(Br)s2)C1` (stereo unspecified) it was inactive: -10.7%; in that of `COc1ccc(C(C(=O)Nc2ccc(C(C)C)cc2)N(C)C(=O)Cc2cccs2)cc1` (stereo unspecified), inactive: -11.4%.

Consider `COc1ccc(Br)cc1CNC(=O)CN1C(=O)CCCc2ccccc21`, for which the “activation” value was inactive: -15.5%. In the case of `C#CC(C)(CC)NC(=O)Cn1nnc(-c2ccc(OCc3ccccc3Cl)cc2)n1` (stereo unspecified) it was inactive: -2.23%.

On to `CC(C)(C)c1ccc(C(=O)Nc2nc3nc(-c4ccccc4)cc(=O)n3[nH]2)cc1`, for which the “activation” value was inactive: -21.7%. The figure for `Cc1ccc(NC(=O)Cn2c(SCc3cccc(F)c3)nc3ccncc32)c(C)c1` is inactive: -18.2%; for `COc1ccc(C(=O)NCC(c2cccnc2)N2CCN(c3ccccc3OC)CC2)cc1` (stereo unspecified) it is inactive: -8.3%; for `COc1cccc(NC(c2nnc(-c3ccccc3)o2)c2ccc(F)cc2Cl)c1` (stereo unspecified) it is inactive: -9.42%. Consider `CCc1ccc(C(=O)c2cn(CC(=O)Nc3ccc4c(c3)OCCO4)c3ccc(CC)cc3c2=O)cc1`, for which the “activation” value was inactive: -12%. In the case of `Cc1ccc2oc(C(=O)Nc3nc(-c4ccc(F)cc4)ns3)c(C)c2c1` it was inactive: -9.9%; in that of `Cc1ccccc1OCC(=O)Nc1ccc(C(=O)OCc2cc(=O)n3c(C)csc3n2)cc1`, inactive: 2.05%. The figure for `COCCCNC(=O)C1CCCN(c2ncnc3onc(C)c23)C1` (stereo unspecified) is inactive: -16.4%; for `COc1ccc(CCNC(=O)c2ccc3c(Cl)c4c(nc3c2)CCCC4)cc1OC` it is inactive: -17.7%; for `CCCN(CCC)C(=O)c1c[nH]c2ccc(S(=O)(=O)N(C)c3ccc(OCC)cc3)cc2c1=O` it is inactive: -7.97%. For the molecule `Cc1cccc(N2CCN(C(=O)c3cc4c(=O)[nH]c5ccc(C)cc5c4s3)CC2C)c1` (stereo unspecified), the “activation” value was inactive: 1.05%. The figure for `COc1ccc(CNC(=O)CSCc2cnn(-c3ccccc3)c2-n2cccc2)cc1OC` is inactive: 3.87%; for `CC(=O)N1CCN(c2nc3c(F)cc(F)cc3s2)CC1` it is inactive: -23.1%; for `COc1ccc(Cn2c(CNC(=O)Cc3cccc([N+](=O)[O-])c3)nc3cccnc32)cc1` it is inactive: -9.58%. In the case of `COc1cccc(NC(=O)CSC2=Nc3ccccc3C3=NC(CC(=O)NCc4cccs4)C(=O)N23)c1` (stereo unspecified) it was inactive: -4.54%; in that of `COc1ccc(C2c3c(oc4cc(C)cc(C)c4c3=O)C(=O)N2Cc2ccco2)cc1OC` (stereo unspecified), inactive: -9.47%; in that of `CCOC(=O)Cn1c(=O)n(CC2CCCO2)c2nc(-c3ccccc3Cl)nc(C(N)=O)c21` (stereo unspecified), inactive: -13.8%. The figure for `Cc1cc(C)cc(NC(=O)c2sc3nc[nH]c(=O)c3c2C)c1` is inactive: -2.55%; for `CCOc1ccccc1NC(=O)C1=C(C)Nc2ncnn2C1c1sccc1C` (stereo unspecified) it is inactive: -12.4%; for `Cc1ccc(CNC(=O)c2c(-c3ccc(Br)cc3)noc2C)o1` it is inactive: -5.92%. For `O=C(CCCn1c(=O)c2cccn2c2cccnc21)Nc1ccccc1C(F)(F)F`, the “activation” value was inactive: -4.05%. In the case of `CCOC(=O)c1ccc(CN(Cc2ccc(OC)cc2)S(=O)(=O)c2cccc(C(F)(F)F)c2)cc1` it was inactive: 3.16%; in that of `CC1=C(C(=O)Nc2ccccc2C)C(c2cccs2)n2nc(SCc3cc(C)ccc3C)nc2N1` (stereo unspecified), inactive: -14.5%; in that of `O=c1c(N2CCc3ccccc3C2)csc2ccc(F)cc12`, inactive: -8.06%. The figure for `COc1ccccc1C(=O)Nc1c(C(=O)c2ccccc2)oc2ccccc12` is inactive: -7.54%; for `CCOc1ccc(N(CC)C(=O)c2noc3c2COc2ccc(C)cc2-3)cc1` it is inactive: 4.58%; for `Cc1c(C(=O)NCc2ccccc2)oc2ccc(S(=O)(=O)N3CCC(C)CC3)cc12` it is inactive: -6.3%.

On to `O=C(NCCc1ccc(Cl)cc1)C(=O)NCC(c1ccco1)S(=O)(=O)c1ccccc1` (stereo unspecified), for which the “activation” value was inactive: -2.5%.

Take `Cc1ccc(NC(=O)C(=O)NCC(c2cccnc2)N2CCN(C)CC2)cc1` (stereo unspecified): the “activation” value was inactive: -15.3%. In the case of `CCn1c(CN2CCCCC2)nc2cc(NC(=O)COc3ccccc3C(C)(C)C)ccc21` it was inactive: -25.4%.

In the case of `Cc1coc2c1c(C)cc1oc(=O)c(CC(=O)NCCc3ccc(Cl)cc3)c(C)c12`, the “activation” value was inactive: -10.4%. With `COc1ccc(CCNC(=O)c2c(O)nc3c(C)cccn3c2=O)cc1OC`, the “activation” value is inactive: -4.23%.

Consider `CCn1c2c(c(=O)n3ncc(C(=O)Nc4ccc(C(=O)OC)cc4)c13)CN(Cc1ccc(OC)cc1)CC2`, for which the “activation” value is inactive: -8.76%. The figure for `COc1ccc(C)cc1NC(=O)c1ccc2nc(Cc3ccccc3)oc2c1` is inactive: -18%. In the case of `CCOc1ccc(CC(=O)NCCS(=O)(=O)N2CCN(c3ccc(OC)cc3)CC2)cc1` it was inactive: -1.28%; in that of `CCn1c2ccccc2c2cc(CN3CCN(Cc4ccc(OC)c(OC)c4)CC3)ccc21`, inactive: -10.7%. The figure for `CCCn1c(/C=C/c2ccccc2)nc2ccccc21` is inactive: -6.81%. In the case of `COc1ccc(NC(=O)c2c(N)c(C(=O)c3ccc(OC)cc3)n3ccccc23)cc1`, the “activation” value is inactive: -7.55%.

Consider `Cc1c(C(=O)NCCc2ccc(Cl)cc2)cccc1-n1cnc2cccnc21`, for which the “activation” value is inactive: -14.3%. In the case of `COc1ccc(N2CCN(C(=O)CSc3nc4ccccc4nc3Cc3ccc(Cl)cc3)CC2)cc1` it was inactive: -0.707%; in that of `Cc1ccc(-n2c3c(c(=O)[nH]c2=O)C(NS(=O)(=O)c2ccc(Cl)cc2)(C(F)(F)F)C(=O)N3)cc1` (stereo unspecified), inactive: -7.93%. In the case of `Fc1cccc(NCc2ccccc2-c2nnc(-c3ccccc3Cl)o2)c1` it was inactive: -12.8%; in that of `O=c1c2oc3ccccc3c2n(Cc2ccc(Cl)cc2)c(=O)n1Cc1ccc2c(c1)OCO2`, inactive: -0.426%. In the case of `NC(=O)C1CCN(c2ncnc3c2cnn3-c2ccccc2)CC1` it was inactive: 3.11%; in that of `COc1ccc(C)cc1NC(=O)C1CCCN(S(=O)(=O)c2ccc3c(c2)CCCN3C(C)=O)C1` (stereo unspecified), inactive: -15.8%. For the molecule `CCC(C)NS(=O)(=O)c1ccc(N2CCCCS2(=O)=O)cc1` (stereo unspecified), the “activation” value is inactive: -15.9%. The figure for `Cc1ccc(C(=O)Nc2ccc(C(=O)O)cc2)cc1S(=O)(=O)Nc1ccccc1` is inactive: -15.5%. The figure for `COc1cccc2c1cc1c(=O)n(CC(=O)N3CCCCC3)nc(C)n12` is inactive: -7.11%. As for `CCC(C)(C)NC(=O)C1CCC(CNS(=O)(=O)c2ccc3c(c2)CC(C)N3C(C)=O)CC1` (stereo unspecified), the “activation” value was inactive: -10.1%. In the case of `Cc1ccc(Cl)cc1N1CCN(C2(c3ccccc3)C(=O)c3ccccc3C2=O)CC1` it was inactive: 3.58%; in that of `COc1cccc(NC(=O)Cn2c(=O)n(-c3cccc(OC)c3)c(=O)c3sc4ccccc4c32)c1`, inactive: 0.565%; in that of `CCOCCCNC(=O)CN1C(=O)c2cccnc2Sc2ccccc21`, inactive: -6.24%. The figure for `CCCCNC(=O)CCCN1C(=O)CCn2nc(-c3cccn3C)cc21` is inactive: -12.6%. In the case of `CCC(CC)C(=O)Nc1nnc(SCc2cc(=O)c3ccccc3[nH]2)s1` it was inactive: 7.43%. As for `COCCNC(=O)CSc1nc2cc3c(cc2c(=O)n1CCCC(=O)NCCc1ccc(OC)c(OC)c1)OCO3`, the “activation” value is inactive: -12.4%. The figure for `O=C(Cn1c(SCCOc2ccccc2Cl)nc2ccccc21)N1CCOCC1` is inactive: 14.3%. In the case of `Fc1ccccc1N1CCN(c2nnc(C(F)(F)F)c3nnn(Cc4ccccc4)c23)CC1` it was inactive: 6.65%; in that of `COc1ccc2c(CNCc3ccco3)c(C(=O)O)n(Cc3ccc(F)cc3Cl)c2c1`, inactive: -19.7%.

Turning to `CN(C)S(=O)(=O)N(CC(=O)Nc1ccc(Br)cc1F)c1ccccc1`, the “activation” value was inactive: -9.18%. The figure for `CCc1ccc(NC(=O)CSc2nc(-c3ccccc3)no2)cc1` is inactive: -22.1%. The figure for `COc1ccc(CCNc2ncnc3c2nnn3C)cc1OC` is inactive: -10.2%; for `Cc1ccc(-n2nc(C)c3c(C)cc(=O)n(CC(=O)Nc4ccc(C(C)C)cc4)c32)cc1` it is inactive: -10.4%. The figure for `COc1ccc(NC(=O)c2c(NCc3cccs3)sc3c2CCCCC3)cc1` is inactive: 2.14%.

On to `CN(C1CCCCC1)S(=O)(=O)c1ccc(F)c(C(=O)Nc2ccc(C(F)(F)F)cc2)c1`, for which the “activation” value is inactive: -14.7%. For the molecule `Cc1c(C(=O)Nc2cccc(F)c2)sc2nc(-c3cc4ccccc4oc3=O)[nH]c(=O)c12`, the “activation” value was inactive: -14.4%.

For `COc1cc(OC)cc(C(=O)NCCc2csc(-c3cccc(C)c3)n2)c1`, the “activation” value is inactive: -26.6%. Consider `CC1CCCCN1C(=O)c1ccc2c(c1)N(Cc1ccc(Cl)cc1)C(=O)c1ccccc1S2=O` (stereo unspecified), for which the “activation” value is inactive: -14.8%. In the case of `CCc1ccc(NC(=O)C(=O)NCCc2sc(-c3ccc(OC)c(OC)c3)nc2C)cc1` it was inactive: 0.317%; in that of `CC(C)C(=O)NC1CC(=O)N(c2ccc3c(c2)OCCO3)C1` (stereo unspecified), inactive: -1.86%.

In the case of `Cc1nnc(N2CCN(c3ccc(Cl)cc3)CC2)c2c1nnn2Cc1ccc(F)cc1`, the “activation” value was inactive: -23.8%. Consider `COc1ccccc1Cn1ccn(CC(=O)Nc2c(C)cc(C)cc2C)c(=O)c1=O`, for which the “activation” value is inactive: 3.74%.

For `COc1cccc(C(c2sc3nc(-c4ccco4)nn3c2O)N2CCCC2)c1` (stereo unspecified), the “activation” value is inactive: -6.31%.

`CCc1cccc(NC(=O)c2cc(-c3ccccc3)n[nH]2)c1`: the “activation” value is inactive: -4.64%. In the case of `O=C(Nc1cccc(Cl)c1)C1CCN(c2nc3ccccc3nc2C(F)(F)F)CC1` it was inactive: -14.8%; in that of `CCOC(=O)c1[nH]c2ccccc2c1NC(=O)c1c(F)cccc1F`, inactive: -12%.
